# In all, about 360,000 compounds went through this assay and about 11,000 (3.1%) were called active. Inconclusive results, whose numbers are uncertain, are shown with a selection of clear calls. Calls follow the shape of the dose curve; as a rule, active = well fitted inhibition curve with a large enough effect; inconclusive = small, poorly fitted or top-dose-only effect; inactive = no such curve, though single readings can be large or run the other way. Potencies of inconclusive entries are left out as doubtful fits.
# Molecular target: Schistosoma mansoni thioredoxin glutathione reductase (TGR) (UniProt Q962Y6)
# Assay: qHTS Assay for the Inhibitors of Schistosoma Mansoni Peroxiredoxins; also: nearly all actives have a fitted effect of over 60% in size
# Conditions: purified TGR, DTNB reduction, TNB absorbance 405 nm; activity change, negative = inhibition: at 114 µM (top of the series) unless noted
# How it was run: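 First, TGR (20 nM dispensed) and NADPH were mixed with compound. Second, a 15 min room-temperature incubation followed. Third, further NADPH and then DTNB were added to start the reaction. Finally, TNB absorbance was monitored kinetically.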
# % is scaled to controls: 0 for no effect and ±100 for the full control effect; potency is read from the fitted curve at half-maximal effect; tags tell the direction and shape of the fitted curve.
SMILES,Potency,"activity change, negative = inhibition"
CC/C(C)=N/Nc1nc2c(c(=O)[nH]c(=O)n2C)n1Cc1ccccc1,"inconclusive [inhibitor, partial curve]",–
CC(=O)Nc1ccc(-c2csc(N/N=C\c3ccncc3)n2)cc1,"inconclusive [inhibitor, full curve]",–
COc1cccc(CNCc2ccccc2Br)c1OC,"inconclusive [inhibitor, partial curve]",–
CCOCCCn1c(C)nc2c[n+](CC(=O)c3ccc4ccccc4c3)cc(Br)c21,–,inactive: -0.267%
Cc1ccc(S(=O)(=O)c2c(N)n(/N=C/c3ccco3)c3nc4ccccc4nc23)cc1C,"inconclusive [inhibitor, partial curve]",–
CCN1CCN(Cc2c(O)c(Cl)cc3c(C)cc(=O)oc23)CC1,"inconclusive [inhibitor, partial curve]",–
O=C(CC1C(=O)NCCN1Cc1cccc(F)c1)NC1CCC1 (stereo unspecified),"inconclusive [inhibitor, full curve, poor fit]",–
O=C(Nc1cccc(Cl)c1)c1csnn1,"inconclusive [inhibitor, partial curve, poor fit]",–
O=C1C(c2ccccc2)=[N+]([O-])c2ccccc21,"inconclusive [inhibitor, partial curve]",–
O=C(CN1CCN(C(=O)c2c(F)cccc2F)CC1)Nc1ccccc1C(F)(F)F,–,inactive: -13%
COC(=O)c1ccccc1NC(=O)/C=C/c1ccco1,active: 39.8 µM,–
Cc1ccccc1OCC(=O)N/N=C/c1ccc(N2CCOCC2)o1,active: 7.94 µM,–
C[n+]1ccccc1/C=C/c1cc(Br)ccc1O,"inconclusive [inhibitor, partial curve]",–
CC(C)(C)OC(=O)N1CCCN(C(=O)Nc2ccccc2)CC1,–,inactive: -9.02%
CCOC(=O)c1ccc(N2C(=O)CC(N3CCOCC3)C2=O)cc1 (stereo unspecified),"inconclusive [inhibitor, partial curve]",–
O=C(O)CC(c1cccc(O)c1)N1Cc2ccccc2C1=O (stereo unspecified),"inconclusive [inhibitor, single point]",–
CCN(CC)CCn1c(=O)n(-c2ccc(Cl)cc2)c(=O)c2c3c(sc21)CN(C)CC3,"inconclusive [inhibitor, partial curve]",–
COc1ccc(/C=N/NC(=O)c2ccc(NC(=O)c3ccccc3Br)cc2)cc1,–,inactive: -1.46%
CC1CCN(C(=O)CCl)CC1,"inconclusive [inhibitor, partial curve]",–
CCCOc1ccc2oc(=O)c3c(c2c1)CCCN3C(=O)CN1CCN(C(=O)c2ccco2)CC1,"inconclusive [inhibitor, full curve]",–
COc1ccc(Cl)cc1NC(=O)NN1CCN(C)CC1,"inconclusive [inhibitor, partial curve]",–
COc1ccc(Cl)cc1NC(=O)NCCn1c(=O)oc2ccc(C)cc21,–,inactive: -0.66%
O=C(O)CC/C(=N\Nc1ccc(S(=O)(=O)N2CCOCC2)cc1[N+](=O)[O-])c1cccs1,"inconclusive [inhibitor, partial curve]",–

SMILES,Potency,"activity change, negative = inhibition"
COc1ccccc1C1C2=C(CC(C)(C)CC2=O)N(CC(=O)O)C2=C1C(=O)CC(C)(C)C2,"inconclusive [inhibitor, partial curve, poor fit]",–
COc1ccc(-c2nc(CS(=O)CC(=O)NCCc3ccccc3)c(C)o2)cc1OC (stereo unspecified),"inconclusive [inhibitor, partial curve]",–
Cc1sc(NC(=O)c2ccco2)c(C(c2cccnc2)N2CCN(c3ccc(F)cc3)CC2)c1C (stereo unspecified),active: 22.4 µM,–
CCC1CN(C)C2Cc3c([nH]c4ccccc34)C(=O)CC1C2C(=O)OC (stereo unspecified),active: 44.7 µM,–
CCN(CC)c1ccc(CN(C(=O)c2ccco2)C2CCS(=O)(=O)C2)cc1 (stereo unspecified),"inconclusive [inhibitor, single point]",–
Fc1ccc(NC(=S)Nc2cccnc2)c(Cl)c1,active: 17.8 µM,–
Cc1cccc(Nc2nnc(SCC(=O)NC(=O)Nc3ccc4c(c3)OCCO4)s2)c1,–,inactive: -12.5%
COCc1ccccc1C1=CC(=O)C[C@H](c2ccc(OC)cc2)C1,–,inactive: -11%
CN(CCC1CCOCC1)C(=O)CC1C(=O)NCCN1Cc1ccccc1F (stereo unspecified),active: 44.7 µM,–
O=S(=O)(Nc1ncnc2c1oc1ccccc12)c1ccc(Cl)s1,"inconclusive [inhibitor, full curve]",–
COc1cc(/C=C2\C(=O)ON=C2c2ccccc2)cc(Cl)c1O,active: 7.08 µM,–
Cc1c(Cl)cnn1CC(=O)NC1C(=O)N2C(C(=O)O)=C(CSc3nnnn3C)CSC12 (stereo unspecified),active: 15.8 µM,–
C=CCN(CC=C)CCOc1cc(C)ccc1[N+](=O)[O-],–,inactive: -35.6%
COc1ccc(-c2nn(CCC#N)cc2C=C(C#N)C#N)cc1,active: 25.1 µM,–
COc1ccc(C(=O)Nc2ccccc2C(=O)NCCN2CCOCC2)cc1,"inconclusive [inhibitor, partial curve]",–
Cc1nn(Cc2ccccc2)c(Cl)c1C(=O)NCc1ccc(C)n1C,"inconclusive [inhibitor, partial curve, poor fit]",–
CN1C(=O)c2ccccc2NC(=O)[C@]12O[C@@H]2c1cccc(O)c1,"inconclusive [inhibitor, partial curve]",–
CCCCn1nnc(NC(=O)Cc2ccc(Cl)cc2)n1,–,inactive: 9.48%
O=C(NC(=S)Nc1ccc2c(c1)OCCO2)c1cccc(Br)c1,"inconclusive [inhibitor, full curve]",–
Cc1cc(O)c2c(c1)C(=O)C13C(=C2O)C(=O)[C@H]2[C@@H](O)[C@@H]1[C@H]1[C@H](O)[C@@H]3C(=O)C3=C(O)c4c(O)cc(C)cc4C(=O)C312 (stereo partly specified),"inconclusive [inhibitor, partial curve]",–
CC(C)CCOc1ccc(C2N=C(N)Nc3nc4ccccc4n32)cc1 (stereo unspecified),–,inactive: -6.78%
Oc1cc(NCCN2CCOCC2)cc2cccnc12,"inconclusive [inhibitor, full curve]",–
Cc1ccc(C(=O)NC(=S)NCc2ccco2)cc1,"inconclusive [inhibitor, partial curve, poor fit]",–
